Measurements published in US7432045B2 (priority 2003, dated 2008).
Read-outs that look alike come from different tables or passages of the source. Peptide text beside a SMILES is read from it.

Test system: HSV-1 KOS

SMILES	antiviral activity, EB compared to acyclovir (added one hour prior to infection, high = exceeding 10 μM)	antiviral activity, EB compared to acyclovir
CC(C)C[C@H](NC(=O)[C@H](C)NC(=O)[C@H](CC(C)C)NC(=O)[C@H](CC(C)C)NC(=O)[C@@H](NC(=O)[C@H](C)NC(=O)[C@@H]1CCCN1C(=O)[C@H](CC(C)C)NC(=O)[C@H](CC(C)C)NC(=O)[C@H](C)NC(=O)[C@@H](NC(=O)[C@H](C)NC(=O)[C@H](C)NC(=O)[C@H](CCCCN)NC(=O)[C@H](CCCCN)NC(=O)[C@H](CCCNC(=N)N)NC(=O)[C@@H](N)CCCNC(=N)N)C(C)C)C(C)C)C(=O)N[C@@H](CC(C)C)C(=O)N[C@@H](C)C(=O)N1CCC[C@H]1C(=O)O [EB] (H-RRKKAAVALLPAVLLALLAP-OH)	greatest antiviral activity	
Nc1nc2c(ncn2COCCO)c(=O)[nH]1 [acyclovir, reference compound]		highest antiviral activity at low dosages
